Laboratory results reported in patent publication US8748182B2, “Mutant proteins and methods for producing them” (Heptares Therapeutics Limited, priority 2007, dated 2014).
Where two headings read alike, the source gives them in different places.

Key:
[1] = biological target: βAR34-424 (Meleagris gallopavo, UniProt P07700, C116L)
Experimental: FIGS. 8A and 8B Saturation binding assays of membranes of βAR34-424 and βAR-m23. Binding assays were performed as described in “Methods” using [^3H]-dihydroalprenolol (DHA) as radioligand; βAR34-424 (a) and βAR-m23 (b). Scatchard plots are shown as insets along with the corresponding values for Bmax and KD. Data points are from duplicates of two independent experiments for each protein.
[…] . This is consistent with the observation that none of the mutations in βAR-m23 correspond with amino acids believed to be implicated in ligand binding. […] . From a crystallisation perspective, this is an added bonus to thermostabilisation, because it is essential to have a conformationally homogeneous protein population for the production of diffraction-quality crystals.
(§1) Receptors were eluted in 2×100 μl of buffer (0.4 M NaCl, 1 mM EDTA, 250 mM imidazole pH 8, plus the relevant detergent). […] .
Non-specific binding was determined in the presence of 1 μM of s-propranolol. […] .

[2] = Stability of βAR-m23 and βAR34-424 in different detergents (Ni-NTA partially purified); format: physicochemical; settings: for active receptor after exchange into OG, NG or LDAO: purification at 6° C.
Experimental: FIGS. 6A-6C Stability of βAR-m23 and βAR34-424 in five different detergents. […] Assays were carried out as described in the Methods and the Tm is shown at the intersection between the curves and the discontinuous line. Results are from duplicate measurements in a representative experiment performed in parallel.
Membranes prepared from E. coli expressing βAR-m23 or βAR34-424 were solubilised in DDM, bound to Ni-NTA agarose then washed with either DDM, decylmaltoside (DM), octylglucoside (OG), lauryldimethylamine oxide (LDAO) or nonylglucoside (NG). […] In contrast, functional βAR-m23 was still present in all detergents and the Tm could be determined. As expected, the smaller detergents were considerably more denaturing than either DDM (Tm 52° C.) or DM (Tm 48° C.), with Tms of 25° C. (NG), 23° C. (LDAO) and 17° C. (OG). The difference in Tm between βAR-m23 and βAR34-424 is about 20° C., irrespective of whether the receptors were solubilised in either DDM or DM; […] . The selection strategy used for the generation of βAR-m23 was chosen deliberately to be based upon thermostability, because it is far simpler to apply than selecting for stability in detergents of increasing harshness.
as §1
Single point binding assays contained 20 mM Tris pH 8, 0.4 M NaCl, 1 mM EDTA, 0.1% DDM (or corresponding detergent) with 50 nM [^3H]-DHA and 20-100 μg membrane protein in a final volume of 120 μl; equilibration was for 1 h at 4° C. Thermostability was assessed by incubating the binding assay mix, with or without [^3H]-DHA at the specified temperature for 30 minutes; reactions were placed on ice and [^3H]-DHA added as necessary and equilibrated for a further hour. […] Non-specific binding was determined in the presence of 1 μM of s-propranolol. […] Radioactivity was counted on a Beckman LS6000 liquid scintillation counter and data were analyzed by nonlinear regression using Prism software (GraphPad).

[3] = Thermostability assay of detergent-solubilised βAR34-424 and mutants expressed in E. coli ([3H]-DHA binding after heating 30 min)

| Substance | Kd ([1]; membranes, n=2, read-out: KD of [3H]-dihydroalprenolol) | Kd ([1]; semipurified receptor, read-out: KD for [3H]-DHA binding) | active receptor after exchange into OG, NG or LDAO [2] | active receptor after exchange into OG, NG or LDAO ([2]; listed as βAR) | predicted Tm in NG ([2]; extrapolated from the Tm difference) | antagonist binding remaining after heating, of the unheated control ([3]; 32° C. for 30 min, [3H]-dihydroalprenolol) | Tm (° C.) ([3]; Table 1, heated 30 min without ligand, then [3H]-DHA binding, DDM-solubilised, E. coli, mean ± S.E. from duplicates) | increase in Tm with bound antagonist versus without antagonist ([3]; [3H]-DHA bound during the heating step) |
| --- | --- | --- | --- | --- | --- | --- | --- | --- |
| 1-[4,6-propyl-^3H]-dihydroalprenolol [[^3H]-dihydroalprenolol] | 2.8 ± 0.1 nM | 3.7 nM | – | – | – | – | – | – |
| βAR34-424: truncated β1 adrenergic receptor from turkey, residues 34-424, C116L, C-terminal tag of 10 histidines; parent receptor | – | – | no active receptors | not possible to measure any activity | about 5 °C | approximately 50% | 31.7 ± 0.1 °C | 6 °C |
